Hit rate of the full screen: of about 2,200 compounds, fewer than 10 were called active. The list shows a part of the results. The source made no clear call on entries shown without one.

For this assay, the target named is GTPase KRas (Homo sapiens) (UniProt P01116). The assay can be described thus: Covalent labelling of cysteine mutants by fragments, read by mass spectrometry (AID 2202238). Also noted: protein at 5 µM with 500 µM competing thiol for 1.5 h. The conditions noted are these: KRAS G12D cysteine mutants, disulfide tethering, MALDI-TOF labeling; stronger effect = higher value; H27C mutant labeling; fragment at 500 µM.
UniProt P01116, sequence (P01116 whole entry, looked up, the tested form may be a part): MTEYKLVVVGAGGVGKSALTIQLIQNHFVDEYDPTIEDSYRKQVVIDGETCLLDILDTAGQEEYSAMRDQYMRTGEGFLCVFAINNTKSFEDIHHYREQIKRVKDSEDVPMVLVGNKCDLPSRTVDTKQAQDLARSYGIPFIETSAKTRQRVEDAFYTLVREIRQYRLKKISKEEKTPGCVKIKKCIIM
In the case of `O=C(NCCS)C1(c2cc(F)cc(Br)c2)CC1`, the percent labeling worked out at 31.1%.

The molecule `CN(C)c1ccc2cc(C(=O)NCCS)ccc2c1` displayed a percent labeling of 18.7%.

As to `CCC(C)c1nc(C)c(CC(=O)NCCS)c(C)n1` (stereo unspecified), the percent labeling is 34.7%.

For `O=C(CCc1nc(-c2ccc(Br)cc2)no1)NCCS`, the percent labeling was 11.6%.

`O=C(CCS)NCc1cn(-c2ccccc2)nc1-c1ccc(F)cc1` had a percent labeling of 22%.

Regarding `O=C(CCS)NC1CCC(c2nc3ccccc3[nH]2)CC1` (stereo unspecified), the percent labeling turned out to be 41.9%.

As to `COc1ccccc1C(=O)NCCS`, the percent labeling turned out to be 52%.

With `Cc1cccc(-c2csc(NC(=O)CCS)n2)c1`, the percent labeling is 20.9%.

As for `O=C(CCS)N1CCC(Nc2ccncc2)CC1`, the percent labeling is 58.2%.

`O=C(NCCS)c1cc(-c2ccccc2F)no1` gave a percent labeling of 23.9%.

Consider `O=C(CCS)Nc1ccc(OC2CCCC2)nc1`, for which the percent labeling stood at 27.8%.

In turn, `O=C(CCS)Nc1cn(-c2ccccc2)nn1` yielded a percent labeling of 34.6%.

Regarding `O=C(CCS)NCc1cccnc1-n1cccn1`, the percent labeling was 28.7%.

`COc1ccc(CN2CCN(C(=O)CCS)CC2)cc1F`: the percent labeling worked out at 49.2%.

The molecule `CC(C)(Cc1c[nH]c2cc(F)ccc12)NC(=O)CCS` yielded a percent labeling of 27%.

`Cc1cn2cc(CC(=O)NCCS)nc2s1` returned a percent labeling of 33.2%.

On to `O=C(CCS)NCC1CN(c2ccccc2)C(=O)O1` (stereo unspecified), for which the percent labeling turned out to be 35.2%.

Take `O=C(NC1CCN(C(=O)CCS)CC1)c1ccccc1`: the percent labeling worked out at 44.9%.

`Cc1cn(-c2cccnc2)nc1NC(=O)CCS` had a percent labeling of 37.3%.

In turn, `CCOc1ccccc1-c1cc(C(=O)NCCS)[nH]n1` returned a percent labeling of 26.2%.

`CCOC(=O)c1nnc(C2CCN(C(=O)CCS)CC2)s1`: the percent labeling was 37.3%.

In turn, `CC(NC(=O)CCS)C1(n2ccnn2)CC1` (stereo unspecified) registered a percent labeling of 27.3%.

In turn, `O=C(CCS)N1CC2CCCS(=O)(=O)C2(C(F)(F)F)C1` (stereo unspecified) gave a percent labeling of 33.5%.

Consider `Cc1nc(-c2cc(C(=O)NCCS)cs2)cs1`, for which the percent labeling came to 34.5%.

In turn, `O=C(NCCS)c1ccc(-c2ccc3c(c2)OCCO3)s1` came in with a percent labeling of 21.7%.

On to `O=C(NCCS)c1cc(-c2cccc(C(F)(F)F)c2)ccn1`, for which the percent labeling is 26.3%.

As to `O=C(NCCS)c1cnc(Oc2ccccc2)cn1`, the percent labeling came to 20.7%.

`CC(C)N(Cc1cccs1)C(=O)CCS`: the percent labeling stood at 36.7%.

Turning to `O=C(NCCS)c1sc(-c2ccccc2)nc1C(F)F`, the percent labeling worked out at 30.2%.

Turning to `Cc1oc(-c2ccccc2)nc1CC(=O)NCCS`, the percent labeling was 29.7%.

Regarding `O=C(CN1CC(C(F)(F)F)CCC1=O)NCCS` (stereo unspecified), the percent labeling came to 35.8%.

As for `CC1(C2CC2)NC(=O)N(c2cccc(NC(=O)CCS)c2)C1=O` (stereo unspecified), the percent labeling is 42.4%.

Molecule `CN(C)C(=O)CCn1ccc(NC(=O)CCS)n1` displayed a percent labeling of 29.1%.

For `Cc1nc(C(=O)NCCS)c(C)o1`, the percent labeling was determined as 32.3%.

`CN(C)Cc1nc(C2(NC(=O)CCS)CCCC2)no1` registered a percent labeling of 28.9%.

The molecule `O=C(NCCS)c1cccc(CN2C(=O)CNC2=O)c1` gave a percent labeling of 47.6%.

As to `COC(=O)[C@@H]1C[C@H](N2C(=O)CNC2=O)CN1C(=O)CCS`, the percent labeling was determined as 36.2%.

For `O=C(CCS)N1CCCN2c3ccccc3CC2C1` (stereo unspecified), the percent labeling was 23.6%.

Turning to `COc1ccc(C(=O)NCCS)cc1-c1ccnn1C`, the percent labeling came to 42.6%.

With `COc1cnc(C2CCCN2C(=O)CCS)[nH]c1=O` (stereo unspecified), the percent labeling came to 29.6%.

With `O=C(CCS)NCc1ccn(-c2cccc(Cl)c2)n1`, the percent labeling came to 31.7%.

As for `CCc1ccc(C(=O)Nc2sccc2C(=O)NCCS)cc1`, the percent labeling turned out to be 21.1%.

Molecule `O=C(NCCS)[C@@H]1CCCO[C@H]1c1ncc[nH]1` yielded a percent labeling of 26.1%.

In turn, `O=C(CCC(=O)N1CCN(c2ncccn2)CC1)NCCS` had a percent labeling of 28.7%.

`O=C(Cc1ccc(C(F)(F)F)nc1)NCCS` registered a percent labeling of 26.9%.

Regarding `Cc1nc2ccnn2c(C)c1CCC(=O)NCCS`, the percent labeling stood at 30.2%.

Molecule `CN1C(=O)c2ccccc2Sc2ccc(NC(=O)CCS)cc21` yielded a percent labeling of 33.9%.

As for `O=C(NCCS)c1csc(-c2ccc(Cl)cc2)c1`, the percent labeling turned out to be 17.5%.

With `O=C(CCS)NCCn1ncc2ccccc2c1=O`, the percent labeling was determined as 39.3%.

`CN(C)c1noc(C2CN(C(=O)CCS)C2)n1`: the percent labeling worked out at 32.2%.

`O=C(CCS)Nc1cccc(-n2cccc2)c1` had a percent labeling of 36.9%.

Turning to `O=C(CCS)NCCc1cc(Cl)sc1Cl`, the percent labeling was 42.5%.

For `O=C(CCS)NC1CCC2(CC1)COCCO2` (stereo unspecified), the percent labeling worked out at 29.1%.

The molecule `O=C(NCCS)C1CCCN1C1CCOCC1` (stereo unspecified) registered a percent labeling of 29.7%.

With `O=C(NCCS)C1CCN(C2CCCCC2)C1` (stereo unspecified), the percent labeling amounted to 46.4%.

Take `O=C(Cn1cc(Br)cn1)NCCS`: the percent labeling was determined as 32.9%.

`Cc1nn(-c2cncc(Cl)n2)c(C)c1CC(=O)NCCS` had a percent labeling of 34.3%.

`N#Cc1cc(Oc2ccc(CC(=O)NCCS)cc2)ccn1` yielded a percent labeling of 36%.

The molecule `Cc1[nH]c2c(Cl)ccc(Cl)c2c1CCNC(=O)CCS` came in with a percent labeling of 24.7%.

In turn, `COc1ccc(C)cc1C1(C)NC(=O)N(CC(=O)NCCS)C1=O` (stereo unspecified) registered a percent labeling of 27.1%.

`Cc1nc2nccc(C(=O)NCCS)c2[nH]1`: the percent labeling turned out to be 44.8%.

The molecule `CC(Cc1cncc2ccccc12)C(=O)NCCS` (stereo unspecified) had a percent labeling of 37.2%.

The molecule `O=C(CCS)Nc1ccn(CCN2CCOCC2)n1` showed a percent labeling of 34.8%.

The molecule `O=C(CCS)N1CCc2sccc2C1c1ccc(Cl)cc1` (stereo unspecified) registered a percent labeling of 34.8%.

As to `O=C(CCS)Nc1cc2c(cc1Cl)OCO2`, the percent labeling was 34.7%.

Molecule `Cn1cc(NC(=O)CCS)c(Oc2ccccc2)n1` gave a percent labeling of 42.4%.

As for `CC1CCC(C)N1CC(=O)NCCS` (stereo unspecified), the percent labeling was 52.1%.

Turning to `O=C(NCCS)c1cnc(C2CCOCC2)nc1`, the percent labeling was 41.2%.

Molecule `O=C(CCS)N(Cc1ccc(-c2ccccc2C(F)(F)F)o1)C1CC1` yielded a percent labeling of 22.2%.

`O=C(NCCS)c1nc(-c2cccs2)n(-c2cccc(F)c2)n1` gave a percent labeling of 25.9%.

With `NC(=O)C1CCC2(CC1)CC(NC(=O)CCS)C2` (stereo unspecified), the percent labeling was determined as 37.9%.

On to `O=C(CCS)Nc1cc(Br)ccc1C(F)F`, for which the percent labeling amounted to 38.2%.

Consider `O=C(NCCS)C1CCOCC12CCCCC2` (stereo unspecified), for which the percent labeling worked out at 29.4%.

`O=C(NCCS)c1cccc(-n2ccnc2)n1`: the percent labeling turned out to be 65.4%.

In the case of `CC(=O)Nc1ccc(C)c(NC(=O)CCS)c1`, the percent labeling amounted to 39.1%.

In turn, `O=C(CNc1nc(C(F)(F)F)nc2ccccc12)NCCS` showed a percent labeling of 27.6%.

Molecule `O=C(NCCS)c1ccoc1C1(O)CCOCC1` showed a percent labeling of 46.3%.

With `O=C(CCC1NC(=O)N(c2ccc(Cl)cc2)C1=O)NCCS` (stereo unspecified), the percent labeling was found to be 32.1%.

`Cn1c2ccccc2c2cc(C(=O)NCCS)sc21`: the percent labeling turned out to be 29.9%.

The molecule `CN(C)c1nccc(N2CCN(C(=O)CCS)CC2)n1` displayed a percent labeling of 45.6%.

On to `O=C(CCS)N(c1cc(F)cc(F)c1)C1CC1`, for which the percent labeling was found to be 31.6%.

`CN(C)c1ncnc2c1cc(C(=O)NCCS)n2C` came in with a percent labeling of 37.3%.

With `NC(=O)c1cc2n(n1)CC1(CCN(C(=O)CCS)CC1)OC2`, the percent labeling was 47.6%.

For `O=C(CCS)Nc1cc(F)c(OC(F)F)cc1F`, the percent labeling is 49.3%.

As to `O=C(NCCS)C1CCC(NC(=O)C2CC2)CC1` (stereo unspecified), the percent labeling turned out to be 35%.

For `Cc1ccc(OC2CCN(C(=O)CCS)CC2)cc1`, the percent labeling was found to be 49.6%.

Turning to `O=C(Cn1cnc(-c2ccccc2)cc1=O)NCCS`, the percent labeling came to 25.6%.

With `Cc1ccc(C(=O)NCCS)cc1NC(=O)c1ccccc1`, the percent labeling was 28%.

Regarding `O=C(CN1CCc2ccccc2C1=O)NCCS`, the percent labeling turned out to be 36.2%.

In turn, `O=C(NCCS)c1ccn2cc(C(F)(F)F)nc2c1` yielded a percent labeling of 31%.

As to `COc1ccc(-c2ncc(C(=O)NCCS)s2)cc1OC`, the percent labeling is 23.4%.

(Values after PubChem BioAssay AID2202238 (Ras Initiative Chemistry Research Team, Frederick National …, 2025).)
